Measurements reported in PubChem BioAssay AID504332 (National Center for Advancing Translational Sciences (NCATS), 2011).
The whole screen tested about 350,000 compounds, of which about 31,000 (8.9%) were called active. Inconclusive means that the source gave no clear call. Such entries were picked first, then a sample of the others. Calls follow the shape of the dose curve; as a rule, active = well fitted inhibition curve with a large enough effect; inconclusive = small, poorly fitted or top-dose-only effect; inactive = no such curve, though single readings can be large or run the other way. Potencies of inconclusive entries are doubtful fits and often do not repeat.

target: Histone-lysine N-methyltransferase EHMT2 (Homo sapiens) (UniProt Q96KQ7); test: qHTS Assay for Inhibitors of Histone Lysine Methyltransferase G9a; conditions: G9a H3K9 monomethylation, AlphaScreen, 2 h; activity, negative = inhibition: at 59 µM (top of the series) unless noted; also: nearly all actives have a fitted effect of over 75% in size
UniProt Q96KQ7, sequence (Q96KQ7 whole entry, looked up): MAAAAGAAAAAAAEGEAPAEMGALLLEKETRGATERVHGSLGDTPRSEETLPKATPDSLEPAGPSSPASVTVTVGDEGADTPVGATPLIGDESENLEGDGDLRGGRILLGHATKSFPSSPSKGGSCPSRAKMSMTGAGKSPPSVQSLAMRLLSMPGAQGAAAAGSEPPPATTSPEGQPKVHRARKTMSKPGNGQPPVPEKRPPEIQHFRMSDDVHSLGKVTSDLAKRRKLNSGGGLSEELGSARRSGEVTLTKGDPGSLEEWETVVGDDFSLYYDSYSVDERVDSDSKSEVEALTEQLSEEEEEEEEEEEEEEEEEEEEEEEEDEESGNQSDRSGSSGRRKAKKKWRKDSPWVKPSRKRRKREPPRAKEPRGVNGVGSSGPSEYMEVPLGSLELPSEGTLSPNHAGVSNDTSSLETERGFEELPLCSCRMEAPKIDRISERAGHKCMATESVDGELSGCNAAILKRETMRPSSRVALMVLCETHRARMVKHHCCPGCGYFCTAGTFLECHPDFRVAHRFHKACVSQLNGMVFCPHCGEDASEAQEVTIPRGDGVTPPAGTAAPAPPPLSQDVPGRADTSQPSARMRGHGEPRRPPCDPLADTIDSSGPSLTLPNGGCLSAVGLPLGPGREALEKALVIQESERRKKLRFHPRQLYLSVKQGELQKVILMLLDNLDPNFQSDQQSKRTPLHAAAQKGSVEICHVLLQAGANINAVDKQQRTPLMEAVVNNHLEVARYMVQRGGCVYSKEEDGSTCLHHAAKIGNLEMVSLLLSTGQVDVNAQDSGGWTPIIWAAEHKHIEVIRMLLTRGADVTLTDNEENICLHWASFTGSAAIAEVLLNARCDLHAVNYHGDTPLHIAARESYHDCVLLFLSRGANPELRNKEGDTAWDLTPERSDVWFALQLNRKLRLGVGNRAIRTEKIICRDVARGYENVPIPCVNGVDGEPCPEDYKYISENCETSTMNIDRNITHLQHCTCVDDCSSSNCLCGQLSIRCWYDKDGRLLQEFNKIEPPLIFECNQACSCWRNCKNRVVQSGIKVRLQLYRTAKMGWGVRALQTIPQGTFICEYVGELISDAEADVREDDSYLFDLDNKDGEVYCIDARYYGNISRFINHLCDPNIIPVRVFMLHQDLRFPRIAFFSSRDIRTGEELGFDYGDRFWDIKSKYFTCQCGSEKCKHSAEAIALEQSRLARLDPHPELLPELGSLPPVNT
Method in brief: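 Readings reflect AlphaScreen signal from monomethyl-H3K9 antibody detection. HMT at 20 nM; substrate b-H3K9 500 nM; cofactor SAM 20 uM; 2 h RT reaction; compounds tested as titrations in qHTS with 15 min preincubation.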
% is scaled to controls: 0 for no effect and ±100 for the full control effect; potency is read from the fitted curve at half-maximal effect; tags tell the direction and shape of the fitted curve.

| SMILES | Potency | activity, negative = inhibition |
| --- | --- | --- |
| COc1ccc(N2CCN(c3nc4c(c(=O)[nH]c(=O)n4C)n3Cc3cccc(C)c3)CC2)cc1 | active: 10 µM |  |
| CCOC(=O)c1[nH]ncc1CN1CCCC(C(=O)c2ccc(C(C)(C)C)cc2)C1 (stereo not given) | inactive |  |
| Cc1ccc(-n2ncc(C(=O)NCCCN3CCc4ccccc4C3)c2C2CCN(C(=O)OC(C)(C)C)CC2)cc1C | inactive |  |
| CCOC(=O)C1CCN(C(=O)c2cc3ccc4ccc(C)[nH]c4c3n2)CC1 | active: 14.1 µM |  |
| C/C(=N\O)C(=O)NCC1CCNCC1 | inconclusive: 79.4 µM [inhibitor, single point] |  |
| CCOc1ccc(NC(=O)CC2C(=O)N(c3cccc(C)c3)C(=O)N2Cc2ccco2)cc1 (stereo not given) | inconclusive: 3.16 µM [inhibitor, full curve, poor fit] |  |
| COc1ccc(-c2nn3c(COc4ccccc4)nnc3s2)cc1OC | inconclusive: 7.94 µM [inhibitor, full curve, poor fit] |  |
| C#CCOCCOCCOCCNc1nc(N2CCOCC2)nc(N2CCN(C(=O)[C@H](Cc3cc4ccccc4[nH]3)n3cc([C@@H](N)CC(C)C)nn3)CC2)n1 |  | inconclusive: -68.3% [inhibitor] |
| O=[N+]([O-])c1cc([N+](=O)[O-])c(Oc2cc(Cl)cc(Cl)c2)cc1NN1CCCCC1 | inconclusive: 3.98 µM [inhibitor, single point] |  |
| CCCCSc1nc2sc3c(c2c(=O)n1-c1ccccc1)CCN(C)C3 | inconclusive: 89.1 µM [inhibitor, single point] |  |
| COc1ccc(CNS(=O)(=O)CCNC(=O)c2cccc(OC)c2)cc1 | active: 50.1 µM |  |
| Cc1cc2c(cc(C(=O)N3CCC(C(=O)NC4CCCC4)CC3)n2Cc2c(F)cccc2Cl)o1 | inactive |  |
| CC(OC(=O)c1ccc(Cl)nc1)C(=O)NC1(C#N)CCCCC1 (stereo not given) | inconclusive: 70.8 µM [inhibitor, partial curve, poor fit] |  |
| CCOC(=O)c1c(NC(=S)Nc2ccccc2)sc2c1CCN(CCc1ccccc1)C2 |  | inconclusive: -53.9% [inhibitor] |
| COc1cc2[nH]c(=S)nc(NCCCOC(C)C)c2cc1OC | active: 44.7 µM |  |
| CCSc1nnc(NC(=O)CN2C(=O)C3CC=CCC3C2=O)s1 (stereo not given) |  | inactive: 28.4% [at 12.7 µM] |
| COc1ccc(OC)c(N/C=C2/CCCCC2=O)c1 | inconclusive: 1.26 µM [inhibitor, single point] |  |
| CN(C)NC(=S)NC1CCS(=O)(=O)C1 (stereo not given) | active: 50.1 µM |  |
| O=C(CSCc1cc(=O)c2ccccc2[nH]1)Nc1cccc(C(F)(F)F)c1 | inactive |  |
| O=C(c1cccs1)N1CCCC(N2CCN(c3cccc(C(F)(F)F)c3)CC2)C1 (stereo not given) | inactive |  |
| O=C1CC(C(=O)N(c2ccccc2)C(C(=O)NC2CCCC2)c2ccncc2)CS1 (stereo not given) |  | inconclusive: -81% [inhibitor] [at 0.501 µM] |
| Cc1nc2c(-c3ccccc3)c(C)[nH]n2c(=O)c1Cc1ccc(C(C)C)cc1 | inactive |  |
| CN(C)S(=O)(=O)c1ccc(C(=O)NCC(c2cccs2)N2CCOCC2)cc1 (stereo not given) |  | inconclusive: -63.9% [inhibitor] [at 2.33 µM] |
| COc1ccc(NC(=O)CN2C(=O)CC(c3ccco3)Sc3ccccc32)cc1OC (stereo not given) | inactive |  |

| SMILES | Potency | activity, negative = inhibition |
| --- | --- | --- |
| CCOc1cc(/C=C\c2[nH]c(=O)[nH]c(=O)c2[N+](=O)[O-])ccc1OC(C)CC (stereo not given) |  | inactive: 20.4% [at 12.7 µM] |
| O=C(/C=C/c1ccc(O)cc1)c1ccccc1O |  | inconclusive: -51% [inhibitor] [at 2.33 µM] |
| CN1CCN(C(=O)c2ccc(Cl)c(S(=O)(=O)N3CCCCC3)c2)CC1 | inconclusive: 1.12 µM [inhibitor, full curve, poor fit] |  |
| NCC1O[C@@H](O[C@@H]2C(O)[C@H](O[C@H]3OC(CO)C(O)C(N)C3O)[C@@H](N)C[C@H]2N)C(N)C(O)C1O (stereo not given in full) |  | inactive: -0.835% [at 2.33 µM] |
| Cc1ccc2nc(CN3CCN(C(=O)Nc4cccc(C)c4C)CC3)oc2c1 | inconclusive: 39.8 µM [inhibitor, partial curve, poor fit] |  |
| COc1ccccc1C(NC(C)=O)c1cc(Cl)c2cccnc2c1O (stereo not given) | inactive |  |
| CCOC(=O)c1c(C)sc(Sc2ccc(Cl)cc2[N+](=O)[O-])c1OC | inconclusive: 2.82 µM [inhibitor, partial curve, poor fit] |  |
| Cc1cc2nnn(-c3nnc(-c4ccccc4)c4ccccc34)c2cc1C | inactive |  |
| CCN1CCN(C(=S)Nc2ccc(C(C)=O)cc2)CC1 | inconclusive: 50.1 µM [inhibitor, partial curve, poor fit] |  |
| O=C(CNC(=O)c1ccc(Br)o1)NCc1ccc(Cl)cc1Cl | inactive |  |
| O=C1CC(N2CCN(Cc3ccc4c(c3)OCO4)CC2)C(=O)N1CCc1ccccc1 (stereo not given) |  | inconclusive: -64.7% [inhibitor] |
| CCOC(=O)C1CCCN(CCSc2ccc(C)cc2)C1 (stereo not given) | inconclusive: 20 µM [inhibitor, full curve] |  |
| O=C(CSc1nnc2c(n1)[nH]c1ccc(F)cc12)N1CCOCC1 | inactive |  |
| O=C(NCc1ccco1)c1ccccc1NS(=O)(=O)c1ccc(Br)s1 | inconclusive: 8.91 µM [inhibitor, single point] |  |
| O=C(Nc1ccc(S(=O)(=O)N2CCN(c3ccccc3)CC2)cc1)c1cccs1 | inconclusive: 1 µM [inhibitor, full curve, poor fit] |  |
| N#CCOC(=O)C1c2ccccc2Oc2ccccc21 | inconclusive: 50.1 µM [inhibitor, partial curve] |  |
| CCN(CC)CC(=O)Nc1c(C)cc(C(C)(C)C)cc1C | inconclusive: 79.4 µM [inhibitor, single point] |  |
| Cc1cccc(N/N=C(\C(N)=O)C2=NC(C)(C)Cc3ccccc32)c1 | active: 44.7 µM |  |
| CCOC(=O)C1=C(N)Oc2cc(O)ccc2C1c1ccc([N+](=O)[O-])cc1 (stereo not given) | active: 39.8 µM |  |
| Cc1ccc(OCCCC(=O)Nc2sc3c(c2C(N)=O)CCCC3)cc1 | inconclusive: 28.2 µM [inhibitor, partial curve, poor fit] |  |
| O=C1CSC(c2cn(-c3ccccc3)nc2-c2ccc3c(c2)OCCO3)N1CCN1CCOCC1 (stereo not given) | inconclusive: 50.1 µM [inhibitor, partial curve] |  |
| CCC(Sc1nnc(-c2ccc(OC)cc2)c(-c2ccc(OC)cc2)n1)C(=O)Nc1cccc(OC)c1 (stereo not given) | inconclusive: 15.8 µM [inhibitor, partial curve, poor fit] |  |
| CCCCS(=O)CC(O)CSc1nc(-c2ccc(OC)cc2)cc(-c2ccccc2)c1C#N (stereo not given) | inactive |  |
| Cc1ccc(NC(=O)C(NC2CCCc3ccccc32)c2ccccc2)c([N+](=O)[O-])c1 (stereo not given) | active: 11.2 µM |  |

| SMILES | Potency | activity, negative = inhibition |
| --- | --- | --- |
| N#Cc1cccc(-c2nc(NCc3ccccc3)c3ccccc3n2)c1 |  | inactive: 0.672% [at 0.501 µM] |
| O=S(=O)(Nc1ccccn1)c1ccc(Cl)c2ccccc12 | inconclusive: 63.1 µM [inhibitor, partial curve, poor fit] |  |
| O=C(NCc1ccccc1Cl)c1ccc(Br)o1 | inactive |  |
| COc1ccc(CNc2ncnc3ccc(-c4ccccc4OC)cc23)c(OC)c1 |  | inactive: 8.65% [at 0.501 µM] |
| CCOc1ccc(C2C(C(=O)c3cccs3)=C(O)C(=O)N2Cc2cccnc2)cc1OC (stereo not given) | inconclusive: 56.2 µM [inhibitor, partial curve, poor fit] |  |
| CC(C)Oc1ccc(OCCNC2CCCC2)cc1 | inconclusive: 1.78 µM [inhibitor, partial curve, poor fit] |  |
| COc1ccc(-n2nc(C(=O)NCC(=O)NCc3ccccc3OC)c3ccccc3c2=O)c(OC)c1 | inconclusive: 79.4 µM [inhibitor, partial curve, poor fit] |  |
| CCCCNC(=O)C(c1ccc(-c2ccccc2)cc1)N(CCN1CCOCC1)C(=O)CCCCCN1C(=O)NC(c2ccc([N+](=O)[O-])cc2)C(C(=O)OCc2ccccc2)=C1C (stereo not given) | inconclusive: 89.1 µM [inhibitor, single point] |  |
| CN(C(=O)C1CCCO1)c1nnc(-c2ccncc2)s1 (stereo not given) | inactive |  |
| CSCC[C@H](NC(=O)C(C)(C)Oc1ccc(Cl)cc1)c1nc2ccccc2[nH]1 | inactive |  |
| COc1cccc(-c2nc(CS(=O)(=O)CC(=O)NC3CCCC3)c(C)o2)c1 | inconclusive: 89.1 µM [inhibitor, single point] |  |
| CC1Cc2cc(-c3csc(N)n3)ccc2O1 (stereo not given) | inconclusive: 89.1 µM [inhibitor, single point] |  |
| CSc1nncc(/C(C)=N\Nc2ccccc2C)n1 | active: 2.51 µM |  |
| Cn1cc(-c2cccc(C(F)(F)F)c2)cc(C#N)c1=O | inactive |  |
| COc1ccccc1CNc1nc(-c2ccoc2)nc2ccccc12 |  | inactive: 3.36% [at 0.501 µM] |
| C#Cc1cccc(Nc2ncnc3cc(OCCOC)c(OCCOC)cc23)c1 | inconclusive: 22.4 µM [inhibitor, single point] |  |
| CN(Cc1ccon1)C(=O)CC1C(=O)NCCN1Cc1ccc(Cl)c(F)c1 (stereo not given) | inconclusive: 63.1 µM [inhibitor, single point] |  |
| CC(C)(C)N1CC(C(=O)Nc2cccc(Cl)c2Cl)CC1=O (stereo not given) | inactive |  |
| C=CCn1c(SCCC)nc2sc3c(c2c1=O)CCc1ccccc1-3 | inconclusive: 89.1 µM [inhibitor, single point] |  |
| CN(C)c1ccc(N=C/C=C2/N(C)c3ccccc3C2(C)C)cc1 | active: 7.08 µM |  |
| Cc1cc(C)c(S(=O)(=O)N(C)CC(=O)NCc2ccncc2)c(C)c1 | inactive |  |
| Cn1c(=O)c2[nH]c(N3CCN(c4cccc(O)c4)CC3)nc2n(C)c1=O | inactive |  |
